# PubChem BioAssay AID504333 (National Center for Advancing Translational Sciences (NCATS), 2011)
# In all, about 360,000 compounds went through this assay and about 16,000 (4.4%) were called active. This list was built around the results that the source calls inconclusive (neither active nor inactive); the mix of calls is not that of the screen. Calls come from the whole dose curve; as a rule, active = well fitted inhibition curve with a large enough effect; inconclusive = small, poorly fitted or top-dose-only effect; inactive = no such curve, though single readings can be large or run the other way. A potency beside an inconclusive call is a rough fit, not a confirmed value.
# Target: Bromodomain adjacent to zinc finger domain protein 2B (Homo sapiens) (UniProt Q9UIF8)
# Experiment: qHTS Assay for Inhibitors of BAZ2B; note: nearly all actives have a fitted effect of over 60% in size
# Details: AlphaScreen BAZ2B-H3K14Ac peptide displacement; series mostly up to 114 µM
# Outline: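 In this displacement format the biotinylated H3(5-23) peptide acetylated at Lys14 serves as ligand at 50 nM, with BAZ2B at 50 nM in PBS pH 7.4 containing 0.01% Tween-20. Donor and acceptor beads are 10 ug/mL final.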
# Potency is the fitted concentration of half-maximal effect; tags give direction and shape of the fitted curve.
# Sequence of UniProt Q9UIF8 (Q9UIF8 whole entry, looked up, the tested form may be a part): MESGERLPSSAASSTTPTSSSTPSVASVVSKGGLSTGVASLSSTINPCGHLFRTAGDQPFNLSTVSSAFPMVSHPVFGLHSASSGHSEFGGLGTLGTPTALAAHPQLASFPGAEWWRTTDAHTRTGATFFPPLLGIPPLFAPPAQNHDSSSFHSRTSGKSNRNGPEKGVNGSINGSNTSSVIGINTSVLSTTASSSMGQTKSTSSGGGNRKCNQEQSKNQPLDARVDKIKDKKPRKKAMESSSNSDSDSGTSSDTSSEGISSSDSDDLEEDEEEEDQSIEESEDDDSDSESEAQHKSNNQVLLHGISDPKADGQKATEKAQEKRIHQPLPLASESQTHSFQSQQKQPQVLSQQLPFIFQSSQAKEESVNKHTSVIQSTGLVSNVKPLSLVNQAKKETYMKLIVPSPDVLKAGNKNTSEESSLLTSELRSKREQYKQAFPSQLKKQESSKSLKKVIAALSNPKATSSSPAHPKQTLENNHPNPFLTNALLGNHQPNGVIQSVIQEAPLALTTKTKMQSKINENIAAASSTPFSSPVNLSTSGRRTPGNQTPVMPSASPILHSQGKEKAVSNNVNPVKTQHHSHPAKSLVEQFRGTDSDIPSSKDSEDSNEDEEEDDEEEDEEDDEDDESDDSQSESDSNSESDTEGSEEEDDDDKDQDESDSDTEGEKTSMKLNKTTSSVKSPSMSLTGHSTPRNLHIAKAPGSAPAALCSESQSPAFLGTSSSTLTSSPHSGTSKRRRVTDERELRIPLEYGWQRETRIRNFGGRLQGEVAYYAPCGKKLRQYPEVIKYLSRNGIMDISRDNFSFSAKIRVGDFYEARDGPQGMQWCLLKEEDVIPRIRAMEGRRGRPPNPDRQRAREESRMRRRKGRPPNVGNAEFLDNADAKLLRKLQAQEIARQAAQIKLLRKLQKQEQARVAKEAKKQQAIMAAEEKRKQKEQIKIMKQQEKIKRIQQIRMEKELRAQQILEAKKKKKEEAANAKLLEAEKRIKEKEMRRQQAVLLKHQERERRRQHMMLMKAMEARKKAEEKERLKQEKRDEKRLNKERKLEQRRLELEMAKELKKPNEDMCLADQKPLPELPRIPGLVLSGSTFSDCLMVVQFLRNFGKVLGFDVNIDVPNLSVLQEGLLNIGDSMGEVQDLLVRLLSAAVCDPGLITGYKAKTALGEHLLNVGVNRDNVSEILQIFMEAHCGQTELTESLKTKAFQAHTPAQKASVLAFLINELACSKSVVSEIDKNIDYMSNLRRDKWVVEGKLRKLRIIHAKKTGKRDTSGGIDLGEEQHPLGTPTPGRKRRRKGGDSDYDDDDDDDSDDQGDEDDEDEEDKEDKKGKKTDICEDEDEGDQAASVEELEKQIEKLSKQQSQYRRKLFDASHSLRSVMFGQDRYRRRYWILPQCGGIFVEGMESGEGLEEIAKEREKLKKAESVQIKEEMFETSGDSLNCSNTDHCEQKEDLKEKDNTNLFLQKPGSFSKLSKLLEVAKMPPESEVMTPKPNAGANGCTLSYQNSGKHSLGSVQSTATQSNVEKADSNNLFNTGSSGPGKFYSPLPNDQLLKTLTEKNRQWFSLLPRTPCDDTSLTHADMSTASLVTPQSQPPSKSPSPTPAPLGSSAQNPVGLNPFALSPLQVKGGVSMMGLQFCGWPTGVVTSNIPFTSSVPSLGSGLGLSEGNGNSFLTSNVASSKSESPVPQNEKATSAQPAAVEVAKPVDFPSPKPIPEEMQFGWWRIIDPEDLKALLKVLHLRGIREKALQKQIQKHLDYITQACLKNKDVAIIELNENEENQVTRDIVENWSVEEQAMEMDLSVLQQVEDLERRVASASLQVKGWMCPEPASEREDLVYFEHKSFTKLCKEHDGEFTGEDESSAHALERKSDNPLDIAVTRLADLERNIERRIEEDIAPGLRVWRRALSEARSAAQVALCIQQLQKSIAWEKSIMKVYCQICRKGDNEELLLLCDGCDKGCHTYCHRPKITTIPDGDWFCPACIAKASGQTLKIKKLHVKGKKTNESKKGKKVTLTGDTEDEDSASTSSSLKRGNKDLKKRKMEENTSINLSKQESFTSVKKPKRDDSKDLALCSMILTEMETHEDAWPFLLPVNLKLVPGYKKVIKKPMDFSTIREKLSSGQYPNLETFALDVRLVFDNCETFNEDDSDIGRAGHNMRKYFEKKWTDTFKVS
row,Structure (SMILES),Potency
1,CC(C)c1cccc(C(C)C)c1NC(=O)CCN1C(=O)NC2(CCCC2)C1=O,inactive
2,COc1cccc(C(=O)N2CCN(Cc3ccco3)CC2)c1OC,inactive
3,CCn1nc(C)c(NS(=O)(=O)c2ccc(C)cc2)c1C,inactive
4,COc1ccc(-n2nc3c(c2NC(=O)c2ccc4c(c2)OCO4)CS(=O)(=O)C3)cc1,"inconclusive: 89.1 µM [inhibitor, single point]"
5,CN(c1ccc(C(=O)Nc2ccc(Cl)cn2)cc1)S(=O)(=O)c1ccccc1,inactive
6,COCCn1nnnc1C(c1ccc(OC)cc1)N1CCC(C)CC1 (configuration not stated),"inconclusive: 100 µM [inhibitor, single point]"
7,COc1cccc(CN2CCN(Cc3ccccc3C(F)(F)F)CC2)c1,active: 25.1 µM
8,Nc1nonc1C(=O)NCCN=Cc1ccccc1O,"inconclusive: 31.6 µM [inhibitor, single point]"
9,Cc1ccc(CNC(=O)c2cc(=O)c3cc(C)ccc3o2)cc1,"inconclusive: 50.1 µM [inhibitor, partial curve]"
10,Cc1cccc(N2CCN(C3=C(c4ccccc4)C(=O)c4ccccc43)CC2)c1C,active: 2.24 µM
11,O=C(N/N=C/c1cc(Br)c(Br)o1)c1ccc2c(c1)OCCO2,active: 44.7 µM
12,COc1ccc(-c2c(C)c3ccc(O)c(CN4CCC(C)CC4)c3oc2=O)cc1OC,inactive
13,NC(=O)C1CCN(C(=O)COc2ccc3c4c(c(=O)oc3c2)CCCC4)CC1,"inconclusive: 89.1 µM [inhibitor, single point]"
14,Cc1ccc(N=Nc2c(=O)[nH]n3c(=O)cc(C)[nH]c23)cc1,active: 50.1 µM
15,COc1ccc(C(Nc2ccccn2)c2ccc3ccc(C)nc3c2O)cc1C (configuration not stated),"inconclusive: 12.6 µM [inhibitor, full curve]"
16,O=C(NCc1ccco1)C1CCN(C(=O)c2cc3sccc3n2Cc2ccc(Cl)cc2)CC1,"inconclusive: 70.8 µM [inhibitor, single point]"
17,O=C(COc1ccc(Cl)cc1Cl)NN1C(=O)/C(=C\c2ccc(Cl)cc2)SC1=S,inactive
18,Cn1c(NCc2ccccc2)nc2c1c(=O)n(Cc1ccccc1)c(=O)n2C,"inconclusive: 79.4 µM [inhibitor, single point]"
19,N#Cc1ccccc1S(=O)(=O)N1CCN(CC(O)c2ccccc2)CC1 (configuration not stated),active: 50.1 µM
20,O=C(Nc1ccc2c(c1)CCCN2C(=O)c1ccco1)c1cc([N+](=O)[O-])ccc1Cl,inactive
21,O=C(Nc1ccccc1)Nc1cccc(C(F)(F)F)c1,inactive
22,CCS(=O)(=O)c1ccc2oc(SCC(=O)NC3CCCC(C)C3C)nc2c1 (configuration not stated),"inconclusive: 89.1 µM [inhibitor, single point]"
23,O=C(O)CCCNc1c(C(=O)Nc2ccc(Cl)cc2)cc([N+](=O)[O-])cc1[N+](=O)[O-],"inconclusive: 44.7 µM [inhibitor, partial curve]"
24,COc1ccc(CCNC(=O)COC(=O)C2CC2C)cc1OC (configuration not stated),inactive
25,Nc1cnn(Cc2ccc(F)cc2)c1,"inconclusive: 50.1 µM [inhibitor, partial curve]"
26,C/C(N)=C(/C#N)C(=O)CSc1nnc(Nc2cccc(C)c2C)s1,"inconclusive: 79.4 µM [inhibitor, single point]"

row,Structure (SMILES),Potency
1,CCCOc1ccc(-c2csc(N)n2)cc1[N+](=O)[O-],"inconclusive: 70.8 µM [inhibitor, single point]"
2,O=C(NCCc1ccc(F)cc1)N1CCOCC1,inactive
3,CCOC(=O)N1CCC2(CC1)C(C#N)=C(N)Oc1n[nH]c(C)c12,inactive
4,C=CCn1c(CCCOc2ccc(Cl)cc2Cl)nnc1SCC(=O)Nc1nccs1,inactive
5,CCc1nnc(NS(=O)(=O)c2ccc(N=Cc3c(C)[nH]n(-c4ccc(Cl)cc4)c3=O)cc2)s1,"inconclusive: 89.1 µM [inhibitor, single point]"
6,CN1CCN(CCOc2cccc(Cl)c2)CC1,"inconclusive: 89.1 µM [inhibitor, single point]"
7,Oc1c(C(Nc2ccccn2)c2ccccc2F)ccc2cccnc12 (configuration not stated),active: 20 µM
8,O=C(O)c1ccccc1C(=O)Nc1ccc(Br)c2cccnc12,inactive
9,COc1ccc(C)cc1NC(=O)c1ccc(CN2CCN(c3ccccc3)CC2)cc1,"inconclusive: 25.1 µM [inhibitor, full curve]"
10,O=[n+]1c2c(n([O-])c3cc(Br)ccc31)CCC2,"inconclusive: 89.1 µM [inhibitor, single point]"
11,CC1=CC(=O)C(C(C)C)=C/C1=N/OS(=O)(=O)c1ccccc1,active: 14.1 µM
12,CNC(=O)N(O)C1N(/N=C/c2ccccc2F)C(=S)SC1(C)C (configuration not stated),inactive
13,CC(=O)N1c2ccccc2C(=O)C1N1CCN(c2cccc(Cl)c2)CC1 (configuration not stated),inactive
14,Cc1c(Cl)cccc1NC(=S)N=Nc1c(O)n(CN2CCOCC2)c2ccccc12,"inconclusive: 10 µM [inhibitor, full curve, poor fit]"
15,CC(C)(C)NCCOCCOc1ccccc1-c1ccccc1,active: 22.4 µM
16,NC(=O)c1ccc(SCC(=O)OCC(=O)N2CCCC2=O)c([N+](=O)[O-])c1,inactive
17,COCCCn1c2nc3ccccc3nc2c2c(=O)n(-c3ccccc3OC)c(C)nc21,"inconclusive: 3.55 µM [inhibitor, single point]"
18,Cc1ccc(OCC(=O)n2nc(C)cc2C)c(C)c1,inactive
19,O=C(NC(=S)Nc1ccc(CN2CCOCC2)cc1)c1ccc2c(c1)OCCO2,"inconclusive: 50.1 µM [inhibitor, partial curve]"
20,CC(NC(=O)Cn1c(=O)oc2cc(S(=O)(=O)N3CCCCCC3)ccc21)c1ccccc1 (configuration not stated),inactive
21,Cc1ccc(Nc2ccccc2N)cc1,active: 44.7 µM
22,Cn1c(=O)c([N+](=O)[O-])c(Oc2ccccc2)c2ccccc21,"inconclusive: 79.4 µM [inhibitor, partial curve]"
23,COc1ccc(NC(=O)c2ccc(-c3ccc([N+](=O)[O-])cc3)o2)cc1OC,"inconclusive: 28.2 µM [inhibitor, full curve]"
24,O=C(CCOc1ccccc1)N1CCN(c2ccc(O)cc2)CC1,"inconclusive: 79.4 µM [inhibitor, partial curve]"
25,Cc1cc(C)c(OCC(=O)N(C)CC(=O)Nc2ccc(N3CCOCC3)cc2)c(C)c1,inactive
26,Cc1cccc(-n2ncc3c(NCc4ccco4)ncnc32)c1,"inconclusive: 89.1 µM [inhibitor, single point]"

row,Structure (SMILES),Potency
1,CC1(C)CC(=O)C2=C(C1)OC(N)=C(C#N)[C@@H]2c1ccccc1[N+](=O)[O-],inactive
2,O=C(c1ccc(F)cc1Cl)N1CCN(CCc2ccccc2)CC1,inactive
3,Cc1noc(NS(=O)(=O)c2ccc(N/C=C\C(=O)c3ccc4c(c3)OCO4)cc2)c1C,"inconclusive: 89.1 µM [inhibitor, single point]"
4,CCN(CC)c1ccc(NC(=O)CN2CCN(CC(=O)Nc3ccc(Cl)cc3)CC2)cc1,active: 20 µM
5,Cc1ccc(-c2csc(NC(=O)CSc3nc(C)cc(=O)[nH]3)n2)cc1,"inconclusive: 35.5 µM [inhibitor, single point]"
6,CCOc1ccc(C(=O)OCC(=O)N2CCOCC2)cc1OCC,inactive
7,Cc1ccc(C2CC(=O)NC(SCC(=O)OCc3ccccc3)=C2C#N)o1 (configuration not stated),"inconclusive: 89.1 µM [inhibitor, single point]"
8,Cc1ccc(Cn2c(C(=O)O)c(CNCc3ccc(C)o3)c3ccc(C)cc32)cc1,"inconclusive: 50.1 µM [inhibitor, partial curve]"
9,Cc1cccc(NC(=O)CN2C(=O)C3(SCC(=O)N3c3ccccc3)c3ccccc32)c1 (configuration not stated),inactive
10,CCc1nnc2n1N=C(c1ccccc1)CS2,inactive
11,Fc1ccc(CN2CCCCCC2)c(F)c1,"inconclusive: 89.1 µM [inhibitor, single point]"
12,N#Cc1ccsc1NC(=O)CN1C(=O)NC2(CCCC2)C1=O,"inconclusive: 56.2 µM [inhibitor, partial curve]"
13,Cc1c(C)n(Cc2ccc(Cl)cc2)c2ccc(C(=O)NCCCN3CCOCC3)cc12,active: 39.8 µM
14,Cc1nc(C)c(C(=O)N/N=C/c2cc(Br)ccc2O)s1,"inconclusive: 89.1 µM [inhibitor, single point]"
15,COc1ccc(N2CCN(C(CNS(=O)(=O)c3ccccc3)c3ccccc3)CC2)cc1 (configuration not stated),active: 25.1 µM
16,O=C(COc1ccccc1Br)N1CCN(C(=O)c2ccco2)CC1,inactive
17,Cc1cc(/C=C2\SC(=S)N(Cc3ccco3)C2=O)c(C)n1-c1cccnc1,active: 12.6 µM
18,Cc1cc(C(=O)C(C)Cl)c(C)n1Cc1ccco1 (configuration not stated),"inconclusive: 50.1 µM [inhibitor, partial curve]"
19,CCOC(=O)C1=C(O)C(=O)N(c2ccc(S(N)(=O)=O)cc2)C1c1ccc(OC)cc1OC (configuration not stated),inactive
20,COc1ccc(-n2nc([N+](=O)[O-])c(=NCc3ccco3)n2O)cc1,"inconclusive: 79.4 µM [inhibitor, single point]"
21,COc1ccc(NC2=CC(c3ccc(F)cc3)N(c3ccc(OC)cc3)C2=O)cc1 (configuration not stated),"inconclusive: 89.1 µM [inhibitor, single point]"
22,O=S(=O)(NCc1ccc(F)cc1)c1ccc(N2CCCCS2(=O)=O)cc1,inactive
23,CCCS(=O)(=O)N1CCN(S(=O)(=O)c2ccc(F)cc2)CC1,inactive
24,COc1ccc(NC(=O)CCC(=O)N/N=C/c2ccc([N+](=O)[O-])s2)cc1,"inconclusive: 39.8 µM [inhibitor, partial curve]"
25,Cc1ccc(NC2=C(Cl)C(=O)c3ccccc3C2=O)cc1,"inconclusive: 2.51 µM [inhibitor, full curve, poor fit]"
